{"source": "the supplement of paper PMC12458215", "note": "± gives the uncertainty stated by the source.", "data": [{"system": "HEK293T", "assay": "plasma membrane surface immunostaining intensity (anti-HA, deep receptor scanning) (arbitrary fluorescence units); higher = higher plasma membrane expression", "settings": "GPCR class: A", "values": [{"sequence": "MALNDCFLLNLEVDHFMHCNISSHSADLPVNDDWSHPGILYVIPAVYGVIILIGLIGNITLIKIFCTVKSMRNVPNLFISSLALGDLLLLITCAPVDASRYLADRWLFGRIGCKLIPFIQLTSVGVSVFTLTALSADRYKAIVRPMDIQASHALMKICLKAAFIWIISMLLAIPEAVFSDLHPFHEESTNQTFISCAPYPHSNELHPKIHSMASFLVFYVIPLSIISVYYYFIAKNLIQSAYNLPVEGNIHVKKQIESRKRLAKTVLVFVGLFAFCWLPNHVIYLYRSYHYSEVDTSMLHFVTSICARLLAFTNSCVNPFALYLLSKSFRKQFNTQLLCCQPGLIIRSHSTGRSTTCMTSLKSTNPSVATFSLINGNICHERYV [GRPR]", "plasma membrane surface immunostaining intensity": "1870 ± 250"}, {"sequence": "MALNHTALPQDERLPHYLRDGDPFASKLSWEADLVAGFYLTIIGILSTFGNGYVLYMSSRRKKKLRPAEIMTINLAVCDLGISVVGKPFTIISCFCHRWVFGWIGCRWYGWAGFFFGCGSLITMTAVSLDRYLKICYLSYGVWLKRKHAYICLAAIWAYASFWTTMPLVGLGDYVPEPFGTSCTLDWWLAQASVGGQVFILNILFFCLLLPTAVIVFSYVKIIAKVKSSSKEVAHFDSRIHSSHVLEMKLTKVAMLICAGFLIAWIPYAVVSVWSAFGRPDSIPIQLSVVPTLLAKSAAMYNPIIYQVIDYKFACCQTGGLKATKKKSLEGFRLHTVTTVRKSSAVLEIHEEWE [OPN5]", "plasma membrane surface immunostaining intensity": "6270 ± 74"}, {"sequence": "MALSYRVSELQSTIPEHILQSTFVHVISSNWSGLQTESIPEEMKQIVEEQGNKLHWAALLILMVIIPTIGGNTLVILAVSLEKKLQYATNYFLMSLAVADLLVGLFVMPIALLTIMFEAMWPLPLVLCPAWLFLDVLFSTASIMHLCAISVDRYIAIKKPIQANQYNSRATAFIKITVVWLISIGIAIPVPIKGIETDVDNPNNITCVLTKERFGDFMLFGSLAAFFTPLAIMIVTYFLTIHALQKKAYLVKNKPPQRLTWLTVSTVFQRDETPCSSPEKVAMLDGSRKDKALPNSGDETLMRRTSTIGKKSVQTISNEQRASKVLGIVFFLFLLMWCPFFITNITLVLCDSCNQTTLQMLLEIFVWIGYVSSGVNPLVYTLFNKTFRDAFGRYITCNYRATKSVKTLRKRSSKIYFRNPMAENSKFFKKHGIRNGINPAMYQSPMRLRSSTIQSSSIILLDTLLLTENEGDKTEEQVSYV [HTR2B]", "plasma membrane surface immunostaining intensity": "218 ± 39"}, {"sequence": "MANASEPGGSGGGEAAALGLKLATLSLLLCVSLAGNVLFALLIVRERSLHRAPYYLLLDLCLADGLRALACLPAVMLAARRAAAAAGAPPGALGCKLLAFLAALFCFHAAFLLLGVGVTRYLAIAHHRFYAERLAGWPCAAMLVCAAWALALAAAFPPVLDGGGDDEDAPCALEQRPDGAPGALGFLLLLAVVVGATHLVYLRLLFFIHDRRKMRPARLVPAVSHDWTFHGPGATGQAAANWTAGFGRGPTPPALVGIRPAGPGRGARRLLVLEEFKTEKRLCKMFYAVTLLFLLLWGPYVVASYLRVLVRPGAVPQAYLTASVWLTFAQAGINPVVCFLFNRELRDCFRAQFPCCQSPRTTQATHPCDLKGIGL [GPR27]", "plasma membrane surface immunostaining intensity": "6013 ± 29"}, {"sequence": "MANSTGLNASEVAGSLGLILAAVVEVGALLGNGALLVVVLRTPGLRDALYLAHLCVVDLLAAASIMPLGLLAAPPPGLGRVRLGPAPCRAARFLSAALLPACTLGVAALGLARYRLIVHPLRPGSRPPPVLVLTAVWAAAGLLGALSLLGTPPAPPPAPARCSVLAGGLGPFRPLWALLAFALPALLLLGAYGGIFVVARRAALRPPRPARGSRLHSDSLDSRLSILPPLRPRLPGGKAALAPALAVGQFAACWLPYGCACLAPAARAAEAEAAVTWVAYSAFAAHPFLYGLLQRPVRLALGRLSRRALPGPVRACTPQAWHPRALLQCLQRPPEGPAVGPSEAPEQTPELAGGRSPAYQGPPESSLS [GPR62]", "plasma membrane surface immunostaining intensity": "549 ± 71"}, {"sequence": "MANTTGEPEEVSGALSPPSASAYVKLVLLGLIMCVSLAGNAILSLLVLKERALHKAPYYFLLDLCLADGIRSAVCFPFVLASVRHGSSWTFSALSCKIVAFMAVLFCFHAAFMLFCISVTRYMAIAHHRFYAKRMTLWTCAAVICMAWTLSVAMAFPPVFDVGTYKFIREEDQCIFEHRYFKANDTLGFMLMLAVLMAATHAVYGKLLLFEYRHRKMKPVQMVPAISQNWTFHGPGATGQAAANWIAGFGRGPMPPTLLGIRQNGHAASRRLLGMDEVKGEKQLGRMFYAITLLFLLLWSPYIVACYWRVFVKACAVPHRYLATAVWMSFAQAAVNPIVCFLLNKDLKKCLRTHAPCWGTGGAPAPREPYCVM [GPR173]", "plasma membrane surface immunostaining intensity": "6404 ± 39"}, {"sequence": "MANYSHAADNILQNLSPLTAFLKLTSLGFIIGVSVVGNLLISILLVKDKTLHRAPYYFLLDLCCSDILRSAICFPFVFNSVKNGSTWTYGTLTCKVIAFLGVLSCFHTAFMLFCISVTRYLAIAHHRFYTKRLTFWTCLAVICMVWTLSVAMAFPPVLDVGTYSFIREEDQCTFQHRSFRANDSLGFMLLLALILLATQLVYLKLIFFVHDRRKMKPVQFVAAVSQNWTFHGPGASGQAAANWLAGFGRGPTPPTLLGIRQNANTTGRRRLLVLDEFKMEKRISRMFYIMTFLFLTLWGPYLVACYWRVFARGPVVPGGFLTAAVWMSFAQAGINPFVCIFSNRELRRCFSTTLLYCRKSRLPREPYCVI [GPR85]", "plasma membrane surface immunostaining intensity": "652 ± 190"}, {"sequence": "MAPTEPWSPSPGSAPWDYSGLDGLEELELCPAGDLPYGYVYIPALYLAAFAVGLLGNAFVVWLLAGRRGPRRLVDTFVLHLAAADLGFVLTLPLWAAAAALGGRWPFGDGLCKLSSFALAGTRCAGALLLAGMSVDRYLAVVKLLEARPLRTPRCALASCCGVWAVALLAGLPSLVYRGLQPLPGGQDSQCGEEPSHAFQGLSLLLLLLTFVLPLVVTLFCYCRISRRLRRPPHVGRARRNSLRIIFAIESTFVGSWLPFSALRAVFHLARLGALPLPCPLLLALRWGLTIATCLAFVNSCANPLIYLLLDRSFRARALDGACGRTGRLARRISSASSLSRDDSSVFRCRAQAANTASASW [GPR25]", "plasma membrane surface immunostaining intensity": "512 ± 62"}, {"sequence": "MARGGAGAEEASLRSNALSWLACGLLALLANAWIILSISAKQQKHKPLELLLCFLAGTHILMAAVPLTTFAVVQLRRQASSDYDWNESICKVFVSTYYTLALATCFTVASLSYHRMWMVRWPVNYRLSNAKKQALHAVMGIWMVSFILSTLPSIGWHNNGERYYARGCQFIVSKIGLGFGVCFSLLLLGGIVMGLVCVAITFYQTLWARPRRARQARRVGGGGGTKAGGPGALGTRPAFEVPAIVVEDARGKRRSSLDGSESAKTSLQVTNLVSAIVFLYDSLTGVPILVVSFFSLKSDSAPPWMVLAVLWCSMAQTLLLPSFIWSCERYRADVRTVWEQCVAIMSEEDGDDDGGCDDYAEGRVCKVRFDANGATGPGSRDPAQVKLLPGRHMLFPPLERVHYLQVPLSRRLSHDETNIFSTPREPGSFLHKWSSSDDIRVLPAQSRALGGPPEYLGQRHRLEDEEDEEEAEGGGLASLRQFLESGVLGSGGGPPRGPGFFREEITTFIDETPLPSPTASPGHSPRRPRPLGLSPRRLSLGSPESRAVGLPLGLSAGRRCSLTGGEESARAWGGSWGPGNPIFPQLTL [GPR162]", "plasma membrane surface immunostaining intensity": "708 ± 170"}, {"sequence": "MASTESSLLRSLGLSPGPGSSEVELDCWFDEDFKFILLPVSYAVVFVLGLGLNAPTLWLFIFRLRPWDATATYMFHLALSDTLYVLSLPTLIYYYAAHNHWPFGTEICKFVRFLFYWNLYCSVLFLTCISVHRYLGICHPLRALRWGRPRLAGLLCLAVWLVVAGCLVPNLFFVTTSNKGTTVLCHDTTRPEEFDHYVHFSSAVMGLLFGVPCLVTLVCYGLMARRLYQPLPGSAQSSSRLRSLRTIAVVLTVFAVCFVPFHITRTIYYLARLLEADCRVLNIVNVVYKVTRPLASANSCLDPVLYLLTGDKYRRQLRQLCGGGKPQPRTAASSLALVSLPEDSSCRWAATPQDSSCSTPRADRL [P2RY4]", "plasma membrane surface immunostaining intensity": "607 ± 59"}, {"sequence": "MATALPPRLQPVRGNETLREHYQYVGKLAGRLKEASEGSTLTTVLFLVICSFIVLENLMVLIAIWKNNKFHNRMYFFIGNLALCDLLAGIAYKVNILMSGKKTFSLSPTVWFLREGSMFVALGASTCSLLAIAIERHLTMIKMRPYDANKRHRVFLLIGMCWLIAFTLGALPILGWNCLHNLPDCSTILPLYSKKYIAFCISIFTAILVTIVILYARIYFLVKSSSRKVANHNNSERSMALLRTVVIVVSVFIACWSPLFILFLIDVACRVQACPILFKAQWFIVLAVLNSAMNPVIYTLASKEMRRAFFRLVCNCLVRGRGARASPIQPALDPSRSKSSSSNNSSHSPKVKEDLPHTAPSSCIMDKNAALQNGIFCN [S1PR3]", "plasma membrane surface immunostaining intensity": "2240 ± 660"}]}, {"system": "HEK293T", "assay": "plasma membrane surface immunostaining intensity (anti-HA, deep receptor scanning) (arbitrary fluorescence units); higher = higher plasma membrane expression", "settings": "GPCR class: C", "values": [{"sequence": "MAIHKALVMCLGLPLFLFPGAWAQGHVPPGCSQGLNPLYYNLCDRSGAWGIVLEAVAGAGIVTTFVLTIILVASLPFVQDTKKRSLLGTQVFFLLGTLGLFCLVFACVVKPDFSTCASRRFLFGVLFAICFSCLAAHVFALNFLARKNHGPRGWVIFTVALLLTLVEVIINTEWLIITLVRGSGEGGPQGNSSAGWAVASPCAIANMDFVMALIYVMLLLLGAFLGAWPALCGRYKRWRKHGVFVLLTTATSVAIWVVWIVMYTYGNKQHNSPTWDDPTLAIALAANAWAFVLFYVIPEVSQVTKSSPEQSYQGDMYPTRGVGYETILKEQKGQSMFVENKAFSMDEPVAAKRPVSPYSGYNGQLLTSVYQPTEMALMHKVPSEGAYDIILPRATANSQVMGSANSTLRAEDMYSAQSHQAATPPKDGKNSQVFRNPYVWD [GPRC5C]", "plasma membrane surface immunostaining intensity": "6290 ± 100"}, {"sequence": "MARPRRAREPLLVALLPLAWLAQAGLARAAGSVRLAGGLTLGGLFPVHARGAAGRACGQLKKEQGVHRLEAMLYALDRVNADPELLPGVRLGARLLDTCSRDTYALEQALSFVQALIRGRGDGDEVGVRCPGGVPPLRPAPPERVVAVVGASASSVSIMVANVLRLFAIPQISYASTAPELSDSTRYDFFSRVVPPDSYQAQAMVDIVRALGWNYVSTLASEGNYGESGVEAFVQISREAGGVCIAQSIKIPREPKPGEFSKVIRRLMETPNARGIIIFANEDDIRRVLEAARQANLTGHFLWVGSDSWGAKTSPILSLEDVAVGAITILPKRASIDGFDQYFMTRSLENNRRNIWFAEFWEENFNCKLTSSGTQSDDSTRKCTGEERIGRDSTYEQEGKVQFVIDAVYAIAHALHSMHQALCPGHTGLCPAMEPTDGRMLLQYIRAVRFNGSAGTPVMFNENGDAPGRYDIFQYQATNGSASSGGYQAVGQWAETLRLDVEALQWSGDPHEVPSSLCSLPCGPGERKKMVKGVPCCWHCEACDGYRFQVDEFTCEACPGDMRPTPNHTGCRPTPVVRLSWSSPWAAPPLLLAVLGIVATTTVVATFVRYNNTPIVRASGRELSYVLLTGIFLIYAITFLMVAEPGAAVCAARRLFLGLGTTLSYSALLTKTNRIYRIFEQGKRSVTPPPFISPTSQLVITFSLTSLQVVGMIAWLGARPPHSVIDYEEQRTVDPEQARGVLKCDMSDLSLIGCLGYSLLLMVTCTVYAIKARGVPETFNEAKPIGFTMYTTCIIWLAFVPIFFGTAQSAEKIYIQTTTLTVSLSLSASVSLGMLYVPKTYVILFHPEQNVQKRKRSLKATSTVAAPPKGEDAEAHK [GRM6]", "plasma membrane surface immunostaining intensity": "1330 ± 470"}]}, {"system": "HEK293T", "assay": "plasma membrane surface immunostaining intensity (anti-HA, deep receptor scanning) (arbitrary fluorescence units); higher = higher plasma membrane expression", "settings": "GPCR class: Unknown", "values": [{"sequence": "MASPRLGTFCCPTRDAATQLVLSFQPRAFHALCLGSGGLRLALGLLQLLPGRRPAGPGSPATSPPASVRILRAAAACDLLGCLGMVIRSTVWLGFPNFVDSVSDMNHTEIWPAAFCVGSAMWIQLLYSACFWWLFCYAVDAYLVIRRSAGLSTILLYHIMAWGLATLLCVEGAAMLYYPSVSRCERGLDHAIPHYVTMYLPLLLVLVANPILFQKTVTAVASLLKGRQGIYTENERRMGAVIKIRFFKIMLVLIICWLSNIINESLLFYLEMQTDINGGSLKPVRTAAKTTWFIMGILNPAQGFLLSLAFYGWTGCSLGFQSPRKEIQWESLTTSAAEGAHPSPLMPHENPASGKVSQVGGQTSDEALSMLSEGSDASTIEIHTASESCNKNEGDPALPTHGDL [GPR143]", "plasma membrane surface immunostaining intensity": "127 ± 18"}]}]}
